The results in this text go back to ChEMBL document CHEMBL4888484, “Replenishing the malaria drug discovery pipeline: Screening and hit evaluation of the MMV Hit Generation Library 1 (HGL1) against asexual blood stage Plasmodium falciparum ,using a nano luciferase reporter read-out” (2022).

Screen size: about 150,000 compounds; about 540 (0.36%) showed an effect of 50% or more. The list shows a part of the results.

This assay concerns Plasmodium falciparum. As to the kind of experiment: Primary screen in NF54 nanoGlo assay, in single point, at 2uM, 72h; a lower Z score goes with more inhibition. The class given is functional, Erythrocyte. The following applies: timepoint 72 hour.
Take `CC(C)(CNS(=O)(=O)c1ccccc1)CNS(=O)(=O)c1ccccc1`: the % Inhibition (as a rule, the change of the read-out against control, counted positive when it falls) is -3% and the Z score amounted to 0.42.

On to `c1ccc2c(c1)c(NCc1ccc3c(c1)OCO3)nn1cnnc21`, for which the “% Inhibition” value was -2% and the Z score was 0.34.

Consider `CCc1nc2n(n1)CCC[C@@H]2NC(=O)c1sc2cccc(F)c2c1C`, for which the “% Inhibition” value came out at 2% and the Z score is recorded as -0.42.

`C#CCCC1(CCC(=O)N2CC(=O)N(CC3CC3)C2)N=N1`: the “% Inhibition” value is listed as -14% and the Z score is 1.73.

As to `CC(C)Cc1cc(CNCc2cnc(N3CCOCC3)nc2)on1`, the “% Inhibition” value was -17% and the Z score is reported as 3.23.

Take `O=C1c2cc(Cl)ccc2N[C@]2(C(=O)Nc3ccccc32)N1Cc1ccc(Cl)cc1`: the “% Inhibition” value was -37% and the Z score worked out at 4.29.

Take `O=S(=O)(c1ccccc1)N1CCN(S(=O)(=O)c2ccc3ccccc3c2)CC1`: the “% Inhibition” value is reported as -3% and the Z score came out at 0.34.

Take `CC[C@@H](CC#N)OC(=O)c1ccc(F)cc1`: the “% Inhibition” value is given as -11% and the Z score is listed as 1.51.

Turning to `CCCn1nnnc1NC(=O)Cc1ccccc1`, the “% Inhibition” value was -10% and the Z score turned out to be 1.27.

With `Cc1ccn([C@@H](C)c2nnc(Nc3ccn(Cc4c(Cl)cccc4Cl)n3)s2)n1`, the “% Inhibition” value amounted to 33% and the Z score is listed as -0.29.

`N#CCC(=O)N(Cc1cccc(Br)c1)C1CCOCC1`: the “% Inhibition” value stood at 1% and the Z score is reported as -0.09.

`Cn1c(-c2cc(-c3ccc(Br)cc3)nc3ccccc23)nc2ccccc21`: the “% Inhibition” value is -11% and the Z score is given as 1.89.

Consider `COc1ccc(C)cc1N1C(=O)N[C@@H](CO)C1=O`, for which the “% Inhibition” value is recorded as -3% and the Z score is 0.44.

With `Cn1nc(-c2cc(F)cc(C(F)(F)F)c2)nc1N1CCCCC1`, the “% Inhibition” value is -6% and the Z score is 0.77.

As to `CC(C)c1ccccc1OCC(O)CN1C(=O)NC(C)(CCc2ccc(OC(F)F)cc2)C1=O` (stereo not drawn), the “% Inhibition” value is -7% and the Z score amounted to 1.35.

As to `Cc1cc(CC(=O)N2CCC3(CCC3)C2)n[nH]1`, the “% Inhibition” value is recorded as -7% and the Z score worked out at 0.88.

As for `CCn1cc(S(=O)(=O)N[C@@H](C)c2cccc(-n3cccn3)c2)cn1`, the “% Inhibition” value is recorded as -7% and the Z score is given as 1.31.

Turning to `Cc1nc2cccc(NC(=O)COc3ccc(Cl)cc3Cl)c2o1`, the “% Inhibition” value was -14% and the Z score came to 1.84.

For the molecule `Nc1c(-c2cccnc2)nc2ccccn12`, the “% Inhibition” value is -14% and the Z score is recorded as 2.09.

For `CCC(CC)(NC(=O)COc1ccc(C)cc1C)C(F)(F)F`, the “% Inhibition” value was -9% and the Z score came to 1.39.

Take `CCN1CCN(Cc2cc(C)cc(CN(C)CCn3ccnc3)c2C)CC1`: the “% Inhibition” value was -12% and the Z score is recorded as 1.49.

With `COCCc1nc(-c2cc3nc(C)cc(C)n3n2)n(C2CCCCC2)n1`, the “% Inhibition” value is recorded as -6% and the Z score came out at 0.85.

Consider `COc1ccc(-n2nc(C(=O)N3CCOCC3)c(=O)n(Cc3ccccc3Cl)c2=O)cc1OC`, for which the “% Inhibition” value is -5% and the Z score is reported as 0.72.

Consider `CCc1ccc(-c2cc(C(F)(F)F)on2)cc1S(=O)(=O)Nc1ccc(F)cc1`, for which the “% Inhibition” value is -9% and the Z score worked out at 1.46.
